Data published in PubChem BioAssay AID2546 (National Center for Advancing Translational Sciences (NCATS), 2010).
Out of some 310,000 compounds screened, about 11,000 (3.5%) were called active. Inconclusive means that the source gave no clear call. Such entries were picked first, then a sample of the others. Calls come from the whole dose curve; as a rule, active = well fitted inhibition curve with a large enough effect; inconclusive = small, poorly fitted or top-dose-only effect, or effect the other way; inactive = flat fitted curve, though single readings scatter. No potency is given beside an inconclusive call; the fits are too rough.

Assay: VP16 counterscreen qHTS for inhibitors of ROR gamma transcriptional activity;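 note: Gal4-VP16 expression switched on by copper sulfate through the metallothionein promoter; nearly all actives have a fitted effect of over 50% in size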
Conditions: Drosophila S2 Gal4-VP16 UAS-luciferase, luminescence, 20 h; series mostly up to 53.6 µM
Potency is the fitted concentration of half-maximal effect; tags give direction and shape of the fitted curve.

Which Potency does the source give for `C=CCn1c(COc2ccc(Cl)cc2)nnc1SCC(=O)NCC(=O)OCC` here?
Its Potency is inconclusive [inhibitor, single point].

With `Oc1[nH]c2ccccc2c1C=Nc1ccc2c(c1)OCCO2` as the molecule, how does the Potency read?
Its Potency is inconclusive [inhibitor, partial curve].

Which Potency does the source give for `COc1ccc(N2CCN(C(=O)c3ccc(CNS(=O)(=O)c4ccc(C)cc4)cc3)CC2)cc1` here?
The Potency was “inactive”.

For `O=C(Nc1ccc2oc(=O)ccc2c1)c1ccc(-c2ccccc2[N+](=O)[O-])o1`, which Potency is on record?
Its Potency is inconclusive [inhibitor, single point].

Which Potency does the source give for `CC(C)Cn1c(-c2ccccc2F)n[nH]c1=S` here?
Its Potency is active: 10 µM.

For `O=C(CC1CCCC1)Nc1nc2ccccc2[nH]1`, which Potency is on record?
Its Potency is inconclusive [inhibitor, single point].

With `Cc1noc(C)c1C(=O)N1CCC2(CC1)CCN(c1cccc(-c3ccccc3)c1)CC2` as the molecule, how does the Potency read?
Its Potency is inconclusive [inhibitor, single point].

Which Potency does the source give for `CCC(C)NC(=S)NNC(=O)c1ccncc1` (stereo unspecified) here?
Its Potency is active: 12.6 µM.

With `Cc1onc(-c2ccccc2)c1C(=O)NNC(=S)NC(=O)/C=C/c1ccccc1` as the molecule, how does the Potency read?
Its Potency is inconclusive [inhibitor, single point].

For `O=C(N/N=C/c1c(O)n(-c2ccccc2Cl)c(=O)c2ccccc12)C1COc2ccccc2O1` (stereo unspecified), which Potency is on record?
The Potency was active: 2.82 µM.

With `Cc1ccccc1/C(N)=N/OC(=O)c1cccs1` as the molecule, how does the Potency read?
The Potency was inconclusive [inhibitor, single point].

Which Potency does the source give for `O=C1C2CC=CCC2C(=O)N1c1ccc(NCCc2ccccc2F)c([N+](=O)[O-])c1` (stereo unspecified) here?
Its Potency is “inactive”.

For `Cc1ccccc1C(=O)NC(=S)Nc1ccccc1[N+](=O)[O-]`, which Potency is on record?
Its Potency is inconclusive [inhibitor, single point].

For `COc1ccc(NC(=O)CSc2nc3ccc(Nc4nc(N5CCOCC5)nc(N5CCOCC5)n4)cc3s2)cc1`, which Potency is on record?
The Potency was inconclusive [inhibitor, single point].

With `COC(=O)c1ccc(/C=C2\SC(=S)N(CCCC(=O)NCCCN3CCOCC3)C2=O)cc1` as the molecule, how does the Potency read?
The Potency was active: 1.78 µM.

With `COc1cc(/C=N/NC(=S)Nc2cccc(S(=O)(=O)N(C)C)c2)cc(OC)c1O` as the molecule, how does the Potency read?
The Potency was active: 2.82 µM.

For `c1ccc(-c2oc3ncnc(NCCCN4CCOCC4)c3c2-c2ccccc2)cc1`, which Potency is on record?
Its Potency is inconclusive [inhibitor, single point].

With `COc1ccc(C(=O)Oc2cccc(Nc3ncnc4ccccc34)c2)cc1OC` as the molecule, how does the Potency read?
The Potency was inconclusive [inhibitor, single point].

With `S=C(Nc1ccccc1)N1CCN(C(=S)Nc2ccccc2)CC1` as the molecule, how does the Potency read?
The Potency was “inactive”.

For `CC(/C=C/c1ccccc1)=N\NC(=O)c1ccc(Br)cc1`, which Potency is on record?
The Potency was active: 0.891 µM.

With `CCn1c(SCC(=O)N/N=C/C=C/c2ccco2)nc2ccccc21` as the molecule, how does the Potency read?
The Potency was active: 15.8 µM.

For `CCN(CC)S(=O)(=O)c1ccc(Cl)c(C(=O)Nc2ccc(Cl)cc2[N+](=O)[O-])c1`, which Potency is on record?
The Potency was inconclusive [inhibitor, single point].

For `Cc1cccnc1NC(=O)c1ccc(Cl)c(S(=O)(=O)N2CCCC2)c1`, which Potency is on record?
Its Potency is “inactive”.

With `CCOc1ccccc1N1C(=O)c2ccc(C(=O)Nc3cccnc3)cc2C1=O` as the molecule, how does the Potency read?
Its Potency is active: 12.6 µM.

Which Potency does the source give for `CSC[C@H](NC(=O)COc1cc2c(c3oc(=O)cc(C)c13)CCC(C)(C)O2)C(=O)O` here?
The Potency was inconclusive [inhibitor, full curve, poor fit].

Which Potency does the source give for `Cc1ccnc(NS(=O)(=O)c2ccc(NC(=O)CCS(=O)(=O)c3ccccc3)cc2)n1` here?
Its Potency is “inactive”.

Which Potency does the source give for `Cc1nc(NC(=S)NC(=O)c2ccco2)sc1C(=O)N(C)C` here?
The Potency was “inactive”.

For `CCC1c2ccc(C)n2CCN1C(=O)Nc1ccccc1C(=O)OC` (stereo unspecified), which Potency is on record?
Its Potency is “inactive”.

Which Potency does the source give for `C[C@H]1[C@H](C)CC[C@]2(C=O)CC[C@]3(C)C(=CC[C@@H]4[C@@]5(C)C[C@@H](O)[C@H](O)[C@@](C)(CO)[C@@H]5CC[C@]43C)[C@H]12` here?
Its Potency is inconclusive [inhibitor, single point].

For `O=[N+]([O-])c1cc(Cl)ccc1N1CCCCC1`, which Potency is on record?
Its Potency is “inactive”.

For `COc1ccc(C(C)(C)C)cc1NC(=O)C1CC=CCC1C(=O)O` (stereo unspecified), which Potency is on record?
Its Potency is “inactive”.

Which Potency does the source give for `Cc1ccccc1C(=O)Nc1ccccc1C(=O)N/N=C\c1ccco1` here?
Its Potency is inconclusive [inhibitor, single point].

Which Potency does the source give for `Cc1ccc(/C=N/NC(=O)CNC(=O)COc2ccccc2)o1` here?
Its Potency is “inactive”.

With `CN(C)/N=C/c1ccc(P(c2ccc(/C=N/N(C)C)o2)c2ccc(/C=N/N(C)C)o2)o1` as the molecule, how does the Potency read?
Its Potency is inconclusive [inhibitor, single point].

For `Cc1cc(C)cc(NC(=S)NN)c1`, which Potency is on record?
The Potency was inconclusive [inhibitor, single point].

With `COc1cc(C=O)ccc1OCc1ccccc1Br` as the molecule, how does the Potency read?
Its Potency is active: 11.2 µM.

Which Potency does the source give for `O=C(CSc1ccc(-c2ccco2)nn1)N1CCCCCC1` here?
Its Potency is inconclusive [activator, partial curve].

For `O=C(NN1C(=O)/C(=C\c2cccnc2)SC1=S)C(c1ccccc1)c1ccccc1`, which Potency is on record?
The Potency was inconclusive [inhibitor, single point].

Which Potency does the source give for `O=c1c2ccccc2oc2cc(NCCCN3CCOCC3)ccc12` here?
The Potency was inconclusive [inhibitor, single point].

For `CCn1c(SCC(=O)Nc2cc(C)on2)nc2sc3c(c2c1=O)CCCC3`, which Potency is on record?
The Potency was inconclusive [inhibitor, partial curve].

For `CCC(=O)Nc1cccc(C(=O)/C=C/c2ccccc2)c1`, which Potency is on record?
Its Potency is inconclusive [inhibitor, single point].

With `COC(=O)c1ccc(N)c(N=CC2=C(O)CC(C)(C)CC2=O)c1` as the molecule, how does the Potency read?
The Potency was inconclusive [inhibitor, single point].

For `Cc1nn(-c2ccccc2Cl)c(Cl)c1/C=N/Nc1cccc(C(=O)O)c1`, which Potency is on record?
Its Potency is inconclusive [inhibitor, single point].

With `CC(=O)/C(=C/c1ccccc1)C(=O)Nc1ccccc1C` as the molecule, how does the Potency read?
Its Potency is inconclusive [inhibitor, partial curve].

With `Nc1nc(CN2CCN(Cc3ccccc3)CC2)nc(Nc2ccccc2)n1` as the molecule, how does the Potency read?
Its Potency is inconclusive [inhibitor, single point].

Which Potency does the source give for `Cc1ccc(CNC(=O)CN2C(=O)CSc3ccc(S(=O)(=O)N4CCC(C)CC4)cc32)cc1` here?
The Potency was inconclusive [inhibitor, single point].

For `N#Cc1cccc(-c2ccc3ncnc(NCc4ccccc4)c3c2)c1`, which Potency is on record?
Its Potency is inconclusive [inhibitor, single point].

For `CCN(CC(=O)NC(C)(C)C)Cc1nc2c(Br)cc(Br)cc2c(=O)[nH]1`, which Potency is on record?
Its Potency is active: 3.16 µM.

Which Potency does the source give for `CCOc1cc(/C=C2\C(=O)N(Cc3ccc(C)cc3)C(C)=C2C(=O)OC)ccc1O` here?
Its Potency is “inactive”.

For `C[C@H](NC(=O)c1nc[nH]c1C(=O)N[C@@H](C)C(=O)OCc1ccccc1)C(=O)OCc1ccccc1`, which Potency is on record?
Its Potency is inconclusive [inhibitor, single point].

Which Potency does the source give for `COc1ccccc1Nc1ccc(Nc2ccccc2OC)nn1` here?
The Potency was “inactive”.

With `CCC/C=C(\CCC)C(NP(=O)(c1ccccc1)c1ccccc1)c1ccc(-c2ccccc2)cc1` (stereo unspecified) as the molecule, how does the Potency read?
Its Potency is inconclusive [inhibitor, single point].

For `COc1ccc(OC)c(NC(=O)CN(C)S(=O)(=O)c2ccc(Cl)cc2)c1`, which Potency is on record?
The Potency was inconclusive [inhibitor, single point].

Which Potency does the source give for `Cc1cc[n+](C2=C([O-])c3ccccc3C(=O)/C2=N\S(=O)(=O)c2cccs2)cc1C` here?
Its Potency is active: 11.2 µM.

For `CN(C)c1ccc(NC2=C(Cl)C(=O)c3ccccc3C2=O)cc1`, which Potency is on record?
Its Potency is inconclusive [inhibitor, single point].

With `CCN1CCN(C(=O)Cn2cnc3sc(C)c(S(=O)(=O)N4CCN(c5ncccn5)CC4)c3c2=O)CC1` as the molecule, how does the Potency read?
Its Potency is “inactive”.

For `Cc1ccn2c(NC(C)(C)C)c(-c3cccs3)nc2c1`, which Potency is on record?
The Potency was “inactive”.

Which Potency does the source give for `COc1ccccc1NS(=O)(=O)c1ccc(NN=C2CCCC2)c([N+](=O)[O-])c1` here?
Its Potency is active: 17.8 µM.

Which Potency does the source give for `NC(=O)c1ccc(NC(=O)COC(=O)C2(c3ccccc3F)CCCC2)cc1` here?
The Potency was “inactive”.

With `Cc1ccc(-c2csc(N3CCC[C@@H]3C(=O)NCCn3c(-c4ccncc4)nc4ccccc43)n2)cc1` as the molecule, how does the Potency read?
Its Potency is inconclusive [inhibitor, single point].

For `CCCCOc1cc(C(=O)NCCN(CC)CC)c2ccccc2n1`, which Potency is on record?
The Potency was inconclusive [inhibitor, single point].

For `CCC1(CC)Cc2ccccc2-c2nc(CN(C)C)[nH]c(=O)c21`, which Potency is on record?
Its Potency is active: 7.08 µM.

Which Potency does the source give for `O=C(Nc1ccccc1)N1CCCN(c2ccc(C(F)(F)F)cc2[N+](=O)[O-])CC1` here?
The Potency was inconclusive [inhibitor, single point].

For `CC(=O)c1ccc(NC(=O)COC(=O)c2ccccc2N=Nc2ccc(N(C)C)cc2)cc1`, which Potency is on record?
Its Potency is “inactive”.

Which Potency does the source give for `COc1ccccc1N1CCN(/N=C\C(Br)=C\c2ccccc2)CC1` here?
Its Potency is inconclusive [inhibitor, partial curve].

Which Potency does the source give for `Cc1c(NN=C(C#N)C#N)c(=O)n(-c2ccccc2)n1C` here?
The Potency was inconclusive [inhibitor, single point].

For `O=C1OC(Nc2cc(Br)cc3cccnc23)c2ccccc21` (stereo unspecified), which Potency is on record?
Its Potency is active: 11.2 µM.

Which Potency does the source give for `Cc1ccc(-c2nnc(-c3ccccc3)o2)cc1` here?
The Potency was active: 10 µM.

For `[O-][n+]1c(/C=C/c2ccccc2)ccc2ccccc21`, which Potency is on record?
Its Potency is inconclusive [inhibitor, single point].

With `N=c1c2c(ncn1CCCO)Oc1c(ccc3ccccc13)C2c1ccccc1` (stereo unspecified) as the molecule, how does the Potency read?
The Potency was inconclusive [inhibitor, single point].

Which Potency does the source give for `Cc1ccnc(NC(=S)NC(=O)/C=C/c2ccccc2)c1` here?
The Potency was inconclusive [inhibitor, single point].
